Results on 48 compounds are retold here after PubChem BioAssay AID1508623 (National Center for Advancing Translational Sciences (NCATS), 2021).

Out of some 48,000 compounds screened, about 450 (0.94%) were called active. Inconclusive results (about 19%) are left out. Calls come from the whole dose curve; as a rule, active = well fitted inhibition curve with a large enough effect; inconclusive = small, poorly fitted or top-dose-only effect; inactive = no such curve, though single readings can be large or run the other way. The list shows a part of the results.

The nature of this test: Primary qHTS for Identification of Small Molecule Inhibitors of Huntingtin Promoter Activity. Note: nearly all actives have a fitted effect of over 50% in size. To be noted: HEK293 HTT promoter firefly luciferase reporter (activity 0% = vehicle and -100% = no light), 24 h; series mostly up to 57.5 µM; activity change, negative = inhibition: at the top concentration. The essentials:
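Quantitative HTS used concentration series of up to 57.5 uM final on HEK293 luciferase reporter cells, 24 h at 37 degrees C. Readout was Dual-Glo firefly luminescence.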
Regarding `Cc1cccc(CN2CCC(CNc3ncnc4onc(-c5ccc(Cl)cc5)c34)CC2)c1`, the “activity change, negative = inhibition” value was inactive: -22.4%.
As for `COc1ccc(NC(=O)C2CCCN(S(=O)(=O)c3cccc4nonc34)C2)cc1Cl` (stereo not drawn), the “activity change, negative = inhibition” value was inactive: -17%.
In the case of `Cn1cnc([N+](=O)[O-])c1Sc1ncnc2nc[nH]c12`, the “activity change, negative = inhibition” value was inactive: -32.5%.
Turning to `Clc1cccc(-n2cc(-c3ccccc3)c3c(NC4CCCC4)ncnc32)c1`, the “activity change, negative = inhibition” value was inactive: -22%.
The figure for `Cc1ccc(-c2nnc3c4ccccc4c(C)nn23)cc1NC(=O)c1cccc(Br)c1` is inactive: -2.4%; for `O=C(NCc1cccc(Cl)c1)NCc1noc2ccccc12` it is inactive: 2.41%.
The figure for `COc1cccc(N2CCN(c3ncnc4c3c(-c3ccccc3)cn4-c3ccc(F)cc3)CC2)c1` is inactive: -16.8%; for `CCCCN(CC)C(=O)CCCn1c(=O)c2cccn2c2ccccc21` it is inactive: -6.16%.
The figure for `COc1ccc(CNC(=O)CCNS(=O)(=O)c2ccc3c(c2)CCCC(=O)N3)cc1` is inactive: -24.8%; for `Cc1ccc(Cn2c(CCNC(=O)C(C)C)nc3ccccc32)cc1` it is inactive: 21%; for `O=C(Cn1nc(-c2ccc(Cl)cc2)ccc1=O)NCCc1ccccc1` it is inactive: -3.18%.
Regarding `CCOC(=O)CCc1c(C)nc2c(c(C)nn2-c2ccc(C)cc2)c1C`, the “activity change, negative = inhibition” value is inactive: -4.91%.
With `O=C(C1CCC1)N1CCc2cc(S(=O)(=O)NCCc3ccccc3)ccc21`, the “activity change, negative = inhibition” value was inactive: -25.9%.
The figure for `Cc1cccc(CSc2ncccc2C(=O)O)c1` is inactive: 26.5%; for `CCOc1ccccc1NC(=O)Cn1c(=O)n(C(C)C)c(=O)c2oc3ccccc3c21` it is inactive: -6.3%.
The figure for `COc1ccc(-n2c(=O)c3ccc(C(=O)NCc4ccc(C)cc4)cc3n(Cc3ccc(Cl)cc3)c2=O)cc1` is inactive: -7.66%; for `COCCn1c(C)cc(O)c(C(c2ccc(F)cc2)N2CCC(C)CC2)c1=O` (stereo not drawn) it is inactive: -7.74%.
Regarding `COc1ccc(-n2nc3c(N4CCCC(C(=O)NCCc5ccccc5C)C4)nnc(C)c3c2C)cc1` (stereo not drawn), the “activity change, negative = inhibition” value was inactive: -17.6%.
Regarding `Cc1ccc(N(CC(=O)Nc2ccc(C)c(Cl)c2)S(=O)(=O)c2cccs2)cc1`, the “activity change, negative = inhibition” value is inactive: -24.7%.
The figure for `COc1cccc(NC(=O)Cn2c(=O)n(-c3ccccc3)c(=O)c3c2c2cc(OC)ccc2n3C)c1` is inactive: -19.2%; for `O=S(=O)(c1ccc(-c2cnc(C3CC3)o2)cc1)N1CCN(c2ccccc2)CC1` it is inactive: -17.8%.
The figure for `CCc1cccc(NC(=O)c2ccc3c(c2)c(C)c(C)n3Cc2ccc(F)cc2)c1` is inactive: -27.3%; for `CCOc1ccccc1NC(=O)c1c(NC(=O)Cc2ccc(OC)cc2)sc2c1CCC2` it is inactive: 27.9%.
Consider `Cc1ccccc1OCC(=O)OCc1cc(=O)n2nc(-c3cccs3)sc2n1`, for which the “activity change, negative = inhibition” value is inactive: -5.49%.
In the case of `COc1ccccc1CNC(=O)c1nnn(CC(=O)Nc2c(C)cccc2C)c1N`, the “activity change, negative = inhibition” value is inactive: -2.15%.
For the compound `Cn1c(C(=O)Nc2ccc(OC(F)(F)F)cc2)cc2c(=O)n3ccccc3nc21`, the “activity change, negative = inhibition” value was inactive: -0.0413%.
With `Cc1ccc(CNC(=O)CN2N=C(c3ccccc3)CCC2=O)cc1` the figure was inactive: 3.83%.
In the case of `Cc1cccc(CSc2nnc3[nH]c(=O)cc(-c4ccccc4)n23)c1`, the “activity change, negative = inhibition” value was inactive: -10.4%.
Consider `Cc1cc(NC(=O)C2CCCN(S(=O)(=O)c3cccc4nsnc34)C2)ccc1Br` (stereo not drawn), for which the “activity change, negative = inhibition” value was inactive: -0.284%.
With `O=C(Nc1cc(Cl)cc(Cl)c1)c1ccc(F)c(S(=O)(=O)N2CCN(c3ccccc3F)CC2)c1` the figure was inactive: -14.9%.
Regarding `CCOc1ccc(NC(=O)N2CCC(N3CCCCC3)CC2)cc1`, the “activity change, negative = inhibition” value is inactive: 6.95%.
The figure for `Cc1ccc(NC(=O)COc2ccc3oc4c(c3c2)CCCC4)cc1C` is inactive: -3.18%; for `Cc1ccc(CN2COc3c(Cl)cc4c(-c5ccccc5)cc(=O)oc4c3C2)cc1` it is inactive: -0.59%; for `O=C(CN1C(=O)COc2ccc(S(=O)(=O)N3CCOCC3)cc21)N1CCN(c2ccccc2F)CC1` it is inactive: -12.2%.
With `Cc1ccc(NC(=O)C(=O)NCC2(c3ccccc3)CCCC2)cc1C` the figure was inactive: 6.67%.
For the compound `CCc1cccc(NC(=O)c2c(C)oc3nc(C)nc(N4CCCC4)c23)c1`, the “activity change, negative = inhibition” value is inactive: -7.31%.
With `CCCOc1ccc(CNC(=O)CN2C(=O)c3cccnc3Oc3ccc(C)cc32)cc1` the figure was inactive: 10.9%; with `Nc1nc2ncc(CNc3ccc(C(=O)N[C@@H](CCC(=O)O)C(=O)O)cc3)nc2c(=O)[nH]1`, inactive: 5.94%; with `COC(=O)C1CCN(c2csc3ccc(Cl)cc3c2=O)CC1`, inactive: 11.7%.
With `CCC[C@H](N[C@@H](C)C(=O)N1[C@@H]2CCCC[C@H]2C[C@H]1C(=O)O)C(=O)OCC`, the “activity change, negative = inhibition” value was inactive: -2.06%.
The figure for `O=C(NCCCO)c1nn(-c2ccc(Cl)cc2)nc1CO` is inactive: 0.994%; for `CCOc1ccc2oc(=O)cc(CN3CCN(c4ccccc4OC)CC3)c2c1` it is inactive: -12.2%.
With `CCc1ccc(OCc2cc(=O)n3cc(C)sc3n2)cc1` the figure was inactive: -1.37%.
Turning to `COc1cc(OC)c(OC)cc1CNCCCSc1nnnn1C`, the “activity change, negative = inhibition” value is inactive: -6.47%.
The figure for `COc1cccc(NC(=O)Cn2c(=O)n(CCc3ccc(OC)c(OC)c3)c(=O)c3ccccc32)c1` is inactive: -2.65%; for `CC(C)[C@H](CO)Nc1nc(Nc2ccc(C(=O)O)c(Cl)c2)c2ncn(C(C)C)c2n1` it is inactive: -4.8%.
The figure for `CCc1ccc(NCc2cc3ccc(OC)cc3n(CC(=O)Nc3ccc(C)c(Cl)c3)c2=O)cc1` is inactive: -18.5%; for `COc1ccc(C(=O)N(Cc2cc(OC)c(OC)c(OC)c2)C2CCS(=O)(=O)C2)cc1Cl` (stereo not drawn) it is inactive: -9.45%.
